Assay results: the supplement of paper PMC11417369
± gives the standard deviation of the averaged measurements. The list shows a part of the results.

system: PfAP2-G AP2 domain (GST-tagged); assay: gcPBM binding intensity (ln(normalized median fluorescence intensity)); higher = stronger DNA binding
Procedure, shortened: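 Plasmodium falciparum DNA-binding domains carrying a GST tag were expressed in E. coli and applied for 1 h, at about 25 μg on average, to an Agilent 4 × 180k array. The array held primer-extended double-stranded 36-bp intergenic genomic probes together with negative controls, and binding took place in 1× PBS with 1% milk, 0.2 mg/ml BSA, 0.5% salmon testes DNA and 0.03% Triton X-100. An Alexa488 anti-GST antibody detected bound protein, and the array was scanned at 488 nm. Binding intensity is taken as the highest Masliner-normalised natural-log median intensity across replicate spots of either probe orientation.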

Point of comparison: “GTACCTATAAATATTACACACATTTTCATTTTTAAC [CACACA_site7022]”, “gcPBM binding intensity (ln)” value 10.22 ± 0.049. Against it:
- CTATAATAGAAGTGTACACACATATTTATGTCTGTA [CACACA_site7462] — higher, 11.7 ± 0.93
- TTTTCTTTATTATAATGTACTCACAAATAAATATAA [XGTACX_site7298] — higher, 11.3 ± 0.91
- TTTCATTTTAGAAGTACACACAAAAAATAAAATAAT [CACACA_site2141] — higher, 11.6 ± 0.92
- AAAAAAAATTATATTTGTACGCATTAAAAAATCTAA [XGTACX_site1616] — higher, 11.5 ± 0.78
- AAAATTGTGAAAGGGAAGATGATCAAATTGTTAAGG [CACACA_negctrl_site1492] — lower, 9.94 ± 0.014
- GATGGGCAAATTTACTGTACTTTTATAATATTTTTT [XGTACX_site4830] — higher, 11.4 ± 0.82
- TATAATGGTAAAAACACACAAATATGAAGATGTTAA [CACACA_site6479] — lower, 9.86 ± 0.014
- ATTAAACTCATTAAGAGTACAGATAACATTAAAGTA [XGTACX_site8697] — higher, 11.4 ± 0.83
- TGAAATTAGATATATACACACATATAGATTTATATG [CACACA_site7619] — lower, 9.85 ± 0.042
- CTTAAAAACAAAAATGCACACATAATAAGCATATGT [CACACA_site9149] — lower, 9.82 ± 0.3
- ATTTTTTTTTTTTTTTCATGAAATTTTTTTTTTTTT [CACACA_negctrl_site1069] — lower, 9.725 ± 0.021
- AACCACCACACCATCACACATAAGATTAGACGAGTA [CACACA_site6063] — within error, 10 ± 0.16
- TGTAGTAATGCTTATTGTACATATACATTTCTTACA [XGTACX_site219] — higher, 10.9 ± 0.64
- TTATATAGAATTAATTTCTTTTTTTTCTTTTTTAAA [CACACA_negctrl_site1308] — lower, 9.46 ± 0.085
- TTAAAAAAAAATAAAGGTACACGGAGAAATCCTTTT [XGTACX_site7509] — higher, 11.1 ± 0.6
- ATATATTTATTATTAGGTACACATATATATATATAT [XGTACX_site5045] — higher, 11.1 ± 0.61
- TTTTCCCTTAACCTCTGTACATATAATTTTCTTTCC [XGTACX_site4180] — higher, 11 ± 0.61
- TTTTTTTTTCGCTTTTGTACACATTTTATAGAACAG [XGTACX_site2416] — higher, 11.4 ± 0.88
- TATTATATATATGGAAGTACAGGTATATCGTTTTTC [XGTACX_site3771] — higher, 11.3 ± 0.66
- TATCCATTATTTAAAAGTACAAAAAACGATTTACAC [XGTACX_site2979] — higher, 11.3 ± 0.8
- AAATATTTTTTAATTGTTCACTTGGTGGATCATTAA [CACACA_negctrl_site922] — the same, 10.25 ± 0.071
- CACATAAAAAAATAAACACACATATGTATATATATA [CACACA_site3177] — within error, 10.05 ± 0.092
- ATTTATTTTTTGTGTTCACACATTAGTATCATCTAT [CACACA_site5274] — within error, 10.3 ± 0.38
- TAGAATATGTTTAGTTGTACAAAACAAAATGGAATT [XGTACX_site5293] — higher, 11 ± 0.61
- ATATTTATGGAATATACACACATGTATAATTATATA [CACACA_site2033] — within error, 10.1 ± 0.13
- TTTTCTGTTTTCATTACACACCTTACAAGAACAATA [CACACA_site2158] — within error, 10.4 ± 0.27
- TCTAATGATATATACACACACATATAGATTTATATA [CACACA_site7044] — lower, 9.89 ± 0.099
- ATTTTTCTAAAATACTGTACAAAGGTGCATAAAAAG [XGTACX_site4425] — higher, 11 ± 0.64
- TTTATTCAAGGAATAGTGCATAATAATAAGTATTAT — within error, 10.1 ± 0.25
- TGTATTCTCTTAGTAGTGCATTTGAAGATTATATAA — the same, 10.2 ± 0.18
- TGCTTTTCTTTTTGCACACTTATGCATATATATATA [CACACA_site2583] — the same, 10.2 ± 0.16
- AAATAAGAAAAAGCGCGTACACATAACATTTTTATA [XGTACX_site8807] — higher, 11.7 ± 0.93
- TTTTTTGCTAAAAAGAGTACTAATAAAAAATTTATT [XGTACX_site5235] — higher, 11.4 ± 0.88
- TTTTTGTAATTATATTAATATATATATATATATATA [CACACA_negctrl_site198] — lower, 9.86 ± 0.28
- AATAATTTAAGGAATACACACAAGAAAAAAATAAGA [CACACA_site60] — the same, 10.2 ± 0.16
- TTATCATTTGGACACGCACACACACCGAAAAAGAAA [CACACA_site8008] — higher, 11 ± 0.66
- GTTCATCACATATACACATGCATATTCTAATATGTA [TGCATGCA_site809] — within error, 10.4 ± 0.56
- ACATTATATAAAATATGTACATATAAAAAATTCTAT [XGTACX_site1617] — higher, 11.3 ± 0.71
- CATATATGTGATAACACGCACACAAATGTATAGAAT [CACACA_site2594] — within error, 10.4 ± 0.19
- GAAAACATTAAAAGTTAGATCATAAGAAAAGAATAT [GTGCAC_negctrl_site726] — lower, 9.76 ± 0.28
- TATTTATTTATTTATGCATGCATGAATAATTTTTAC [TGCATGCA_site31] — within error, 9.98 ± 0.19
- ATTATTTAGAAATGAGCACACAAAAAGAAGAATTTT [CACACA_site7913] — within error, 10.3 ± 0.15
- TCACTATAGTAATTTACACACATTTGAAGAAAATGT [CACACA_site7626] — lower, 9.99 ± 0.085
- ACAAGAGAAGTAATTGCACACGTTGTTTCTTTTTCT [CACACA_site35] — within error, 9.79 ± 0.38
- CCACATATACAAAACACACACACAACGTTTTAATAA [CACACA_site1978] — within error, 10.1 ± 0.16
- ATAATAATATAAAATACACACCTATTATTTTTACAA [CACACA_site6069] — lower, 9.86 ± 0.071
- TATAATATATATATATGTACATATTATTTACATATA [XGTACX_site7312] — higher, 11.2 ± 0.71
- AAAAAAAAAAAAAAGAGTACATTTATTTATATATCT [XGTACX_site2381] — higher, 11.5 ± 0.88
- TGTTTAACACATGTTTCAAACAAAAAAAAAAAGACA [CACACA_negctrl_site1356] — within error, 10.1 ± 0.28
- AATATATTAAATCTTACACACTAAAAAATATGTAAC [CACACA_site4325] — lower, 9.88 ± 0.085
- TTTTAACATAGAAGTACACACATATAATCAATCATA [CACACA_site5313] — higher, 11.4 ± 0.88
- AAGAATTATATATTCACACAAAAAAAAAGTAAAAGA [CACACA_site5335] — lower, 10.04 ± 0.028
- TTTTAAATTTTTTAAAGTACACGTCGAAAAGGTATA [XGTACX_site76] — higher, 11.4 ± 1.1
- AAAACAGACAAACACACACACACATATATATATATA [CACACA_site3393] — within error, 10.1 ± 0.25
- CTTTTAATTATAAAATGTACTTAAAAATAATAATAC [XGTACX_site635] — within error, 11.1 ± 0.88
- TTATCCCCCTATCATTGTACATTAATACAAACTAAA [XGTACX_site5630] — higher, 11.5 ± 0.95
